# Measured values from the RNAGym collection of RNA variant scans (doi:10.1073/pnas.2313332121).
# This sample is rich in variants without activity.
# B1: TPR 5TU (parent)
# chain: GGAUCUUCUCGAUCUAACAAAAAAGACAAAUCUGCCACAAAGCUUGAGAGCAUCUUCGGAUGCAGAGGCGGCAGCCUUCGGUGGCGCGAUAGCGCCAACGUUCUCAACUAUGACACGCAAAACGCGUGCUCCGUUGAAUGGAGUUUAUCAUG
# Variants of: B1
# Assay: polymerase ribozyme fitness, log enrichment relative to wild type (log ratio); higher = more active; in vitro selection for triplet polymerase activity
# Procedure, shortened: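 Mutant libraries of both subunits of a heterodimeric triplet polymerase ribozyme were PCR-built, transcribed, and selected once in triplicate, with frozen incubation at −7 °C and capture of gel-excised extended constructs on streptavidin beads before RT-PCR. Illumina sequencing of input and output libraries was filtered to genotypes with ≥10 input reads and ≥1 read per output. Fitness is the logarithm of genotype enrichment over wild-type enrichment, using inverse-variance-weighted replicate averages. The logarithm is base 2.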
row,Variant,polymerase ribozyme fitness (log ratio)
1,G84A,-0.547
2,G84C,-1.76
3,G84U,-1.91
4,G84A C87U U109G U139G U144C,≤ -4.2
5,G84U C99U G141C,-2.46
6,C85A A119U A122U G141A,0.358
7,G81C U102C A147G,-3.21
8,G83U C103G A107U,≤ -4.2
9,G84U A121C,-1.74
10,G83U A91C U148A,≤ -4.2
11,G83U C99G U145G,≤ -4.2
12,G84U G94U,-2.37
13,G84U G94C U101G C149A,≤ -4.2
14,G81C G94U A98U U146G,-0.695
15,U82C C95A,-1.46
16,G84U U104G,-2.26
17,C85A C93U C125A U148A,≤ -4.2
18,G83U A113U,-2.14
19,G83A A147C,0.0173
20,U82C G94C C108A A110G A113G G140U,≤ -4.2
21,G83A A142G U148A,-4.11
22,C85A C95A,-0.893
23,G84U G117U A121G,-1.75
24,U82G G92U A97G A138C,≤ -4.2

row,Variant,polymerase ribozyme fitness (log ratio)
1,G84U A89U G126U,-1.58
2,G83C G88C,≤ -4.2
3,G83A G88U,≤ -4.2
4,G84A A119U,-0.787
5,C85A C87A C108U A121U U135C G141A U145A,≤ -4.2
6,G84C A120G G128A,≤ -4.2
7,G83C G140A,≤ -4.2
8,G83U C95G,-1.54
9,G84U A110U A113U,≤ -4.2
10,G81C G83U G92C U101G,≤ -4.2
11,G83C C96U C108G G143U,≤ -4.2
12,G83U C123A,-0.709
13,C85A A113C C149G,≤ -4.2
14,G81U U82C G83C C93G G143A,≤ -4.2
15,G83A A150U,0.356
16,G84A G128U G141C,≤ -4.2
17,G84U G100A C116G U151A,≤ -4.2
18,G81A G133U,-3.84
19,G81A G133C,-3.84
20,C85A A97U G152A,≤ -4.2
21,G81A G86A A97C,-0.925
22,G83A G126C,0.173
23,G81C C85U A89U A142G,-1.67
24,C85A G94C A121C,-1.84

row,Variant,polymerase ribozyme fitness (log ratio)
1,G84A G88U,-3.57
2,C85A A107U,≤ -4.2
3,G81U C85U,-0.466
4,G83A C99U G143A A147U,-3.6
5,G84U U148C,≤ -4.2
6,G83U U101G C108A A115U G141A,≤ -4.2
7,G83U A110U,-4.17
8,G84A A115U G126A,-4.17
9,G83A C85A C118U G140A,≤ -4.2
10,U82C G86A,-2.06
11,U82A G126A,1.28
12,G83A G88U C125A G152U,≤ -4.2
13,G83C G92A U127A G128U,≤ -4.2
14,G84A A137U U148C,≤ -4.2
15,G84A A115C,-0.594
16,U82C C95U C114A U127A G140C,≤ -4.2
17,G84A U90A A121U,≤ -4.2
18,U82G G86U,-1.46
19,C85A C108U C114U,≤ -4.2
20,G83C C105G,-2.69
21,G84U C116U G141C,-4.04
22,G83A G141C,-1.87
23,G84A C105U A113C C129A,≤ -4.2
24,G84U A110G,≤ -4.2

row,Variant,polymerase ribozyme fitness (log ratio)
1,G84C G92U A150U,-2.39
2,G83A A107G G126A,≤ -4.2
3,G84U U104G A115C,-3.36
4,G83C U102G G143A,≤ -4.2
5,C85A U111G,≤ -4.2
6,G83C G133A,-3.62
7,G84A G100C,≤ -4.2
8,G83C U145C,-2.18
9,G84C A120G U127A U135A,≤ -4.2
10,G83C G84U C87U U102G A107U,≤ -4.2
11,U82A A107U,-2.79
12,G84U G126U,-1.45
13,C85A G126C,-0.131
14,C85A G126U,-0.409
15,C85A A91U A113C,≤ -4.2
16,G83U C123A C132G G141U,≤ -4.2
17,G83A C132G G133C,-2.67
18,G83C U104G,-2.14
19,G84A C131A,-2.79
20,G81A G88C A120U U134G G141C C149U,≤ -4.2
21,G83U C93U A113C A122C,≤ -4.2
22,G84U C85U C87G C96A A142U U148G,≤ -4.2
23,G83C C125G G133A U145G,≤ -4.2
24,G84A C85G A113U A120G G126U,≤ -4.2

row,Variant,polymerase ribozyme fitness (log ratio)
1,G83A A110C C123G,≤ -4.2
2,G84U C87G U90C C96U U145G,≤ -4.2
3,G83C G136A,-0.101
4,G83C G136U,-2.46
5,C85A C125G,-1.13
6,U82G C95G G126C,-1.07
7,G83C C87A C118U U151G,≤ -4.2
8,G83A C103G A110G,≤ -4.2
9,U82C C95A C118A U134G,≤ -4.2
10,U82G G92C G124C G140A A147G,≤ -4.2
11,G81C A91U U151G,≤ -4.2
12,G84U G92A G94A C99G U135A G141U,≤ -4.2
13,G84C C95A A142C,-1.65
14,G83U G140U G152U,-3.93
15,U82G C85G A110C,≤ -4.2
16,G81A C103G U135C A137U,≤ -4.2
17,U82G C96U,-2.13
18,U82G C96A,0.287
19,G84A C105U,0.191
20,G84A A89U G136U,-2.91
21,G84A A150G,-0.63
22,G81C C87A U127C U144A U148A,≤ -4.2
23,G84A U151G,≤ -4.2
24,C85A G92U A106U,≤ -4.2

row,Variant,polymerase ribozyme fitness (log ratio)
1,G83U A122C G133C A147C,-2.76
2,C85A A115C,-1.64
3,G83A A106G A119C,-0.0979
4,G84U A98G,-2.89
5,G81U U82A G92A G152U,≤ -4.2
6,G84A C114A G136C,≤ -4.2
7,G83U A97U G117U G133A,≤ -4.2
8,G84U G133A,≤ -4.2
9,G83A A107G G136A G140A,≤ -4.2
10,G81U A97U C105U,0.976
11,G83C G94A A98U C125U,-1.82
12,G84U U102G,-4.16
13,G83U A89C,-0.953
14,G83C C132G,≤ -4.2
15,G83C C132A,-2.69
16,G83U C95U C118U U144A,-3.4
17,G83C A89C A138G A142U,≤ -4.2
18,G83A G88A A91G G112U G140U G143C,≤ -4.2
19,C85A C87A,≤ -4.2
20,C85A C87U,≤ -4.2
21,U82A U90G G128A,≤ -4.2
22,G81A U148C,-1.48
23,G83A C95U,-0.657
24,G83A C95G,-1.23

row,Variant,polymerase ribozyme fitness (log ratio)
1,G83A A119C,-2.44
2,G83A C87A,≤ -4.2
3,G83C G100U U135G G141U A150C,≤ -4.2
4,C85A A91C C95U G140U,≤ -4.2
5,G83A G141U G143A,≤ -4.2
6,G84A A91U,≤ -4.2
7,G81A G94A G143U,-2.83
8,G83C A121U,0.406
9,G84U U144G,-0.698
10,G83A C85U G128A C132U,≤ -4.2
11,U82A C96G,-0.244
12,G83A C85U,-1.94
13,G84U C99G C103U,≤ -4.2
14,U82A C93U A119U U127G G143C,-4.06
15,G83U,-0.478
16,G83C,-0.934
17,G83A,-0.336
18,U82A A113C G117U G141C,≤ -4.2
19,G83C C95U C96A C103G,≤ -4.2
20,U82C,-0.0678
21,U82A,-0.0631
22,U82G,0.17
23,G83C G92U A137G,-3.45
